Measurements from PubChem BioAssay AID686979 (National Center for Advancing Translational Sciences (NCATS), 2013).
Values joined by “and” are separate entries in the source; they are usually repeats but may differ in a detail not shown here. Identical values can stand only once. About 50,000 (12%) of roughly 420,000 compounds were called active. The inconclusive results got no clear call from the source; some entries with a clear call stand among them for comparison. The call rests on the fitted dose curve; in most records, active means well fitted inhibition curve with a large enough effect; inconclusive means small, poorly fitted or top-dose-only effect; inactive means flat fitted curve, though single readings scatter. Potencies beside an inconclusive call are fits to weak or partial responses and may not hold up.

Assay: qHTS for Inhibitors of human tyrosyl-DNA phosphodiesterase 1 (TDP1): qHTS in cells in presence of CPT; further: nearly all actives have a fitted effect of over 55% in size
Conditions: chicken DT40 Tdp1-/-;hTDP1 cells + 20 nM CPT, ATP luminescence, 48 h; activity change, negative = growth inhibition: at 46.2 µM (top of the series) unless noted
Method in brief: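 Cell growth measured by CellTiter-Glo luminescence after a minimum 48 h, 37 C compound exposure with 20 nM CPT in Tdp1-knockout DT40 cells stably expressing hTDP1, seeded 400/well; qHTS titration format.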
On the % scale 0 is the no-effect control and ±100 the full control effect; potency means the concentration at half of the fitted maximal effect; tags describe the fitted curve by direction and shape.

SMILES | Potency | activity change, negative = growth inhibition
O=C(CC(SCCO)c1ccc2c(c1)OCO2)c1ccco1 (configuration not stated) | active: 20.6 µM | 
O=C(Nc1ccc(S(=O)(=O)N2CCOCC2)cc1)C1CCN(S(=O)(=O)c2ccc(F)cc2)CC1 | inconclusive: 20.6 µM [inhibitor, single point] | 
CC(C)(C)C(=O)Nc1ccc2oc(-c3cc(F)c(F)cc3Cl)nc2c1 | inconclusive: 25.9 µM [inhibitor, single point] | 
Cc1cc(C(=O)CSc2nnc(-c3ccco3)o2)c(C)n1Cc1ccco1 | active: 20.6 µM | 
COC(=O)[C@]1(Cc2ccccc2)N[C@H](CN(C)C(=O)C2CCCCC2)[C@@H]2C(=O)N(C)C(=O)[C@@H]21 | inactive | 
O=C(c1ccc(-c2ccccc2Cl)o1)N1CCN(c2ccccc2O)CC1 | inconclusive: 29.1 µM [inhibitor, single point] | 
CNc1oc(/C=C/c2cccc(OC)c2)nc1C#N | inactive | 
COc1ccc(/C(C)=N/NC(=O)c2nnn(-c3nonc3N)c2-c2ccccc2)cc1 | inconclusive: 29.1 µM [inhibitor, single point] | 
CC(Sc1nnc(Cc2cccs2)n1C1CCCCC1)C(=O)NCc1ccco1 (configuration not stated) | active: 14.6 µM | 
COc1cc(/C=C2\C(=O)N(CCC#N)N=C2C)c(Br)cc1OC(C)C | inconclusive: 20.6 µM [inhibitor, partial curve] | 
O=[N+]([O-])c1ccccc1/C=N\N1CCN(Cc2ccccc2Cl)CC1 | inactive | 
CCOC(=O)c1c(NC(=S)NC(=O)c2ccc(Cn3cc(Cl)cn3)o2)sc2c1CCC(C)C2 (configuration not stated) | active: 13 µM | 
CC1(C)CC(=O)C([C@H]2C3=C(CC(C)(C)CC3=O)Oc3ccccc32)C(=O)C1 | inactive | 
Cc1nnc(NC(=O)C2CCN(S(=O)(=O)c3cc([N+](=O)[O-])ccc3Cl)CC2)o1 | inactive | 
CCOc1ccc(S(=O)(=O)N2CCOCC2)cc1NC(=O)c1ccc(N2CCCC2=O)cc1 |  | inconclusive: -30.3% [inhibitor]
CCOc1ccc(C(=O)N/N=C/c2ccc(-c3ccc(S(=O)(=O)Nc4ncccn4)cc3)o2)cc1 | inactive | 
O=C(CC1C(=O)NCCN1C(=O)c1ccc(Cl)cc1)Nc1ccc(F)cc1 (configuration not stated) | inactive | 
O=C(O)CSc1nnc(CNc2ccc(F)cc2)n1-c1ccccc1 | inactive | 
CN1CCn2cnc(C(=O)NCCCCCNC(=O)OC(C)(C)C)c2C1=O | inactive | 
COc1ccc(COc2ccsc2C(=O)Nc2ccc(Cl)cc2)cc1 | inconclusive: 29.1 µM [inhibitor, single point] | 
CCc1ccc(NC(=O)Cn2nc3c4ccccc4n(Cc4ccccc4)cc-3c2=O)cc1 | inactive | 
CCN(CC(=O)Nc1c(F)cccc1F)C(=O)C1CCN(c2ncnc3sc(C)c(C)c23)CC1 | active: 20.6 µM | 
COc1ccccc1N1CCN(C(=O)c2sc3ncn(CC(=O)N4CCC(C)CC4)c(=O)c3c2C)CC1 | inconclusive: 2.91 µM [inhibitor, full curve] | 
CCN(C(=O)/C=C/c1cc(OC)c(OC)c(OC)c1)C1CCCCC1 | inconclusive: 23.1 µM [inhibitor, single point] | 

SMILES | Potency | activity change, negative = growth inhibition
Cc1cc(C)cc(N(C(=O)c2cc3ccccc3oc2=O)C2C=CS(=O)(=O)C2)c1 (configuration not stated) | inconclusive: 23.1 µM [inhibitor, single point] | 
Cc1cc(OCc2cc(C(=O)N(C)CCOc3ccccc3)no2)cc(C)c1Cl | inconclusive: 18.4 µM [inhibitor, single point] | 
Cc1ccc(-c2nc3c4ccccc4[nH]c(=O)n3n2)cc1 | inconclusive: 6.51 µM [inhibitor, full curve, poor fit] | 
Cc1cccc(C)c1NC(=O)C1(C)CSCC(=O)N1Cc1cccc(C(F)(F)F)c1 (configuration not stated) | inconclusive: 23.1 µM [inhibitor, single point] | 
COCCn1c(=O)c2c(nc3n2CCCN3CCc2ccccc2)n(C)c1=O | inactive | 
CCOc1ccc(/C=N/NC(=O)c2nnn(-c3nonc3N)c2COc2ccc(F)cc2)cc1 | inconclusive: 29.1 µM [inhibitor, single point] | 
CCc1nc2ccc(C(=O)N3CCN(c4cccc(C)c4C)CC3)cc2nc1CC | inactive and inconclusive: 18.4 µM [inhibitor, single point] | 
CCOC(=O)c1cc(CC)sc1NC(=O)COc1ccc2c(C)cc(=O)oc2c1 | inconclusive: 29.1 µM [inhibitor, single point] | 
O=C(c1ccc(Cl)c([N+](=O)[O-])c1)N(Cc1ccc(F)cc1)C1CCS(=O)(=O)C1 (configuration not stated) | inactive | 
CS(=O)(=O)c1ccc(Cl)c(NC(=O)COC(=O)CCCN2C(=O)c3cccc4cccc(c34)C2=O)c1 | inactive | 
O=C(c1ccc(CSc2nc3ccncc3n2Cc2ccc(F)cc2)cc1)N1CCCCCC1 | inconclusive: 14.6 µM [inhibitor, single point] | 
Cc1c(NC(=O)c2ccco2)cccc1C(=O)NN1C(=O)c2ccccc2C1=O | inactive | 
COc1ccc(NS(=O)(=O)c2cc(NC(=O)Cn3cnc4c3c(=O)n(C)c(=O)n4C)ccc2C)cc1 | inconclusive: 29.1 µM [inhibitor, single point] | 
COc1ccc([C@H]2C[C@@H](n3cc(-c4ccc(F)cc4)nn3)[C@H](O)CN2C(=O)C2CCCCC2)cc1 | inconclusive: 23.1 µM [inhibitor, single point] | 
CC(C)(C)NS(=O)(=O)c1ccc(/C=C/C(=O)O)cc1 | inactive | 
O=C(NCCC1=CCCCC1)c1ccc(Br)o1 | active: 8.2 µM | 
O=C(CN1CCC(C(=O)c2ccc(Cl)cc2)CC1)Nc1ccc2c(c1)OCCO2 | inconclusive: 29.1 µM [inhibitor, single point] | 
CCN(C(=O)c1coc(=O)c(Br)c1)c1ccc2c(c1)OCO2 | active: 1.46 µM | 
Cc1ccccc1CSc1nc2n(n1)C(c1cccs1)C1=C(CCCC1=O)N2 (configuration not stated) | active: 20.6 µM | 
COc1cc(F)ccc1-c1csc(C(O)(c2ccccc2)C(F)(F)F)n1 (configuration not stated) | active: 23.1 µM | 
O=S(=O)(c1ccc2c(c1)OCO2)N1CCN(c2nnnn2-c2ccccc2)CC1 | inconclusive: 10.3 µM [inhibitor, partial curve] | 
COc1ccc2c(c1)O/C(=C\c1sccc1C)C2=O | inconclusive: 18.4 µM [inhibitor, single point] | 
O=C1CC(c2cccc(O)c2)c2c(nc(SCc3ccccc3F)[nH]c2=O)N1 (configuration not stated) | inactive | 
CCOc1ccc(C(=O)N(Cc2sccc2C)C2CCS(=O)(=O)C2)cc1 (configuration not stated) | inconclusive: 23.1 µM [inhibitor, single point] | 

SMILES | Potency | activity change, negative = growth inhibition
COc1ccc(CCNC(=O)COc2ccc(N(C)S(=O)(=O)c3ccc(C)cc3)cc2)cc1OC | inconclusive: 18.4 µM [inhibitor, single point] | 
COc1cc2nc(C3CCC3)n(NC(=O)COc3ccccc3)c(=O)c2cc1OC | inactive | 
C=COCCNC(=O)Nc1ccc(Cl)cc1Cl | inactive | 
CC1(Oc2ccccc2-c2ccno2)CCN(Cc2ccc(-c3ccccc3)o2)C1 (configuration not stated) | active: 25.9 µM | 
CCOc1ccc(-c2cc(OC(=O)c3ccc(OC)cc3)c3c(C)oc(C)c3c(=O)c2)cc1 | inconclusive: 29.1 µM [inhibitor, single point] | 
CCOc1ccccc1CNC(=O)c1cc2n(n1)CCCN(Cc1ccc(C)cc1)C2=O | active: 16.4 µM | 
O=[N+]([O-])c1ccc(N2N=C(c3ccco3)CC2c2ccccc2)cc1 (configuration not stated) | inconclusive: 18.4 µM [inhibitor, single point] | 
O=C(NC1CCCCC1)N(c1ccccc1)c1nnc(-c2cccc([N+](=O)[O-])c2)s1 | active: 25.9 µM | 
Cc1nc(C)c(C(=O)OCC(=O)Nc2cccc(C)c2C)s1 | inconclusive: 9.2 µM [inhibitor, partial curve] | 
N=C(N)SCc1ncccc1O | inactive | 
CCCCn1c(N)c(N(CC(C)C)C(=O)C2CCN(S(=O)(=O)c3ccc(C)c(C)c3)CC2)c(=O)[nH]c1=O | inconclusive: 20.6 µM [inhibitor, partial curve, poor fit] | 
COc1ccccc1-c1cc(SC)c(C#N)c(=O)o1 | active: 3.66 µM | 
COc1ccccc1N1CCN(C(=O)c2ccc(S(=O)(=O)N3CCCCC3)cc2)CC1 | active: 23.1 µM | 
Cc1onc(-c2ccccc2)c1C(=O)N1CCCc2ccccc21 | inconclusive: 18.4 µM [inhibitor, single point] | 
CCc1ccccc1NC(=O)Nc1ccc2c(c1)N(CC)C(=O)c1ccccc1S2 | active: 8.2 µM | 
COc1ccc(OC)c(NC(=O)c2cc(-c3cc(C)cc(C)c3O)n[nH]2)c1 | inconclusive: 29.1 µM [inhibitor, single point] | 
COc1ccccc1N1CCN(C(=O)c2cccc(N3C(=O)C4C5C=CC(C5)C4C3=O)c2)CC1 (configuration not stated) | inconclusive: 29.1 µM [inhibitor, single point] | 
CSC1=NC(=O)/C(=C/c2ccc(SC)cc2)S1 | inconclusive: 29.1 µM [inhibitor, single point] | 
COC(=O)c1ccccc1NC(=O)c1ccc2nccnc2c1 | inconclusive: 18.4 µM [inhibitor, single point] | 
NC(=O)Cc1nc2scc(-c3ccc(Cl)cc3)c2c(=O)[nH]1 | inactive | 
CCc1cccc(-n2c(C)nc3c(cnn3-c3ccc(C)c(C)c3)c2=O)c1 | inactive | 
Cc1ccccc1NC(=O)C1CCCN(S(=O)(=O)c2ccc3c(c2)C(C)(C)C(=O)N3C)C1 (configuration not stated) | inactive | 
COCCn1nnnc1C(c1cc2cc(C)ccc2[nH]c1=O)N1CCCCCC1 (configuration not stated) | inactive | 
O=C(c1cc(-c2ccc(O)cc2)on1)N1CCCc2ccccc21 | inactive | 
